Assay results: the supplement of paper PMC10126150
Sequences with one replicate were seen in a single cluster, so their values are uncertain.

The sequences below were run on ATP (assay: switch fluorescence ratio, 500 uM ATP over buffer (Cy3 cluster intensity, sum of 5 cycles each) (fold (ratio)); higher = stronger signal-on switching upon ATP binding; sequences stand for … in TCGTCGGCAGCGTCAGATGTGTATAAGAGACAGTTTTTTTTTTTTTTTTTTTTTTTTT…TC). Conditions: aptamer strand: ATP DNA aptamer (quencher-CACCTGGGGGAGTATTGCGGAGGAAGG + anchor), 100 nM annealed; ATP concentration: 500 uM; one replicate.
Method in brief: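 Values give the fluorescence ratio for each switch-domain sequence, averaged from per-cluster ratios of summed target-cycle to summed buffer-cycle Cy3 intensity. The Cy3-labelled switching-strand clusters sat on a modified Illumina MiSeq flow-cell, were annealed to 100 nM quencher-labelled ATP aptamer, and were imaged in selection buffer, then after 15 min with 500 uM ATP at 22 °C. Five cycles ran with NaOH stripping and re-annealing between them, and clusters outside 100-1000 RFU were excluded.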
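Note: ATP exposure 15 min at 22 °C before imaging.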

Row | Sequence | switch fluorescence ratio
1 | GAGTTTGTAG | 0.953
2 | GATAAAAAAT | 0.971
3 | GATAAAGAAT | 1.03
4 | GATAAAGTCA | 0.941
5 | GATAACACAC | 1.28
6 | GATAACGCCA | 1.3
7 | GATAAGAGAC | 1.09
8 | GATAAGGTAA | 1.01
9 | GATAAGTACG | 1.23
10 | GATAATTACG | 1.06
11 | GATACAAATG | 0.948
12 | GATACAGGTA | 1.04
13 | GATACATCTA | 0.992
14 | GATACCGGTC | 1.08
15 | GATACGGCCG | 1.04
16 | GATACTACTT | 1.05
17 | GATAGAATTC | 0.99
18 | GATAGACCAT | 1.01
19 | GATAGCATTG | 1
20 | GATAGGAAGA | 1.03
21 | GATAGGAATT | 0.999
22 | GATAGGATGA | 0.974
23 | GATAGGCCTC | 1.05
24 | GATAGGTCGG | 0.989
25 | GATAGTACAT | 1.06

Row | Sequence | switch fluorescence ratio
26 | GATAGTAG | 1
27 | GATAGTATGG | 0.99
28 | GATAGTGTAA | 0.961
29 | GATAGTTACC | 1.04
30 | GATAGTTGTC | 0.996
31 | GATATAAAAA | 1.15
32 | GATATAGTCC | 0.998
33 | GATATCGTC | 0.968
34 | GATATGAGGT | 0.935
35 | GATATGTTAG | 1.01
36 | GATATTGCAT | 1.02
37 | GATATTGGTC | 1.05
38 | GATCAACGAA | 0.966
39 | GATCAAGGAA | 0.95
40 | GATCAGGGAG | 1.03
41 | GATCAGGGTT | 0.937
42 | GATCATGTTG | 1.02
43 | GATCCCCCCA | 1.06
44 | GATCCGGGAA | 1.05
45 | GATCCGTCGT | 1.02
46 | GATCCGTGTT | 1.02
47 | GATCCTAGCA | 1.06
48 | GATCCTCAAA | 0.995
49 | GATCCTCGCA | 1.17
50 | GATCCTCTCG | 1.08

Row | Sequence | switch fluorescence ratio
51 | GATCCTGGTT | 1.07
52 | GATCGATGTC | 1.1
53 | GATCGCACCT | 1.4
54 | GATCGTTCGC | 1.03
55 | GATCTAATGA | 1.04
56 | GATCTACCCG | 1.02
57 | GATCTAGTAG | 0.992
58 | GATCTCGGAC | 0.998
59 | GATCTCTTAA | 0.975
60 | GATCTGGCAG | 0.974
61 | GATCTTCTGT | 1.05
62 | GATCTTTTAA | 1.02
63 | GATGAAGGAA | 1.01
64 | GATGAAGGTC | 0.994
65 | GATGACACTT | 1.05
66 | GATGACCAGT | 1
67 | GATGATAACT | 0.97
68 | GATGATGTCT | 1.11
69 | GATGATTCCA | 0.985
70 | GATGATTGAT | 1.03
71 | GATGATTGGG | 1.01
72 | GATGCATCGT | 1.02
73 | GATGCCATGC | 1.24
74 | GATGCCCATT | 1.03
75 | GATGCCGCGA | 3.22

Row | Sequence | switch fluorescence ratio
76 | GATGCGCTG | 1.05
77 | GATGCGGGTT | 1
78 | GATGCTAGCC | 1.08
79 | GATGGAGTGG | 0.971
80 | GATGGCTGCA | 0.994
81 | GATGGGAACT | 1.01
82 | GATGGGACGC | 1.03
83 | GATGGGGTCG | 0.955
84 | GATGGTACGG | 0.994
85 | GATGGTAGAT | 0.992
86 | GATGGTCCGA | 1
87 | GATGGTGAGG | 0.996
88 | GATGTAGACA | 0.999
89 | GATGTATCCT | 1.05
90 | GATGTCACGC | 1.05
91 | GATGTCTCGC | 0.962
92 | GATGTGATCG | 1.05
93 | GATGTGGATG | 1.03
94 | GATGTTGAGT | 0.978
95 | GATGTTGGAC | 0.99
96 | GATTAACCGC | 1.14
97 | GATTAACTCG | 1.01
98 | GATTAATGTG | 0.998
99 | GATTACGCAG | 0.999
100 | GATTAGGAGA | 0.988

Row | Sequence | switch fluorescence ratio
101 | GATTATCCG | 0.963
102 | GATTATGAA | 0.988
103 | GATTCACAAT | 1.02
104 | GATTCATAG | 0.992
105 | GATTCCAAGA | 1.01
106 | GATTCCGCGC | 2.22
107 | GATTCGATTT | 0.995
108 | GATTCGCGGT | 1.01
109 | GATTCGGATA | 0.996
110 | GATTCGGGG | 1.01
111 | GATTCTATTC | 1.04
112 | GATTCTCGCG | 0.996
113 | GATTCTTGAT | 0.956
114 | GATTCTTTTA | 1.05
115 | GATTGACGAG | 0.932
116 | GATTGAGTGC | 0.904
117 | GATTGATATA | 1
118 | GATTGATATT | 1.02
119 | GATTGCACAG | 1.04
120 | GATTGCACGT | 1.02
121 | GATTGCGCTG | 0.983
122 | GATTGGCAAC | 1.06
123 | GATTGGGCTA | 0.982
124 | GATTGTAGAT | 1
125 | GATTGTAGCG | 0.942

Row | Sequence | switch fluorescence ratio
126 | GATTGTGTC | 0.947
127 | GATTTATAGT | 1
128 | GATTTATGAA | 0.975
129 | GATTTATGCC | 1.04
130 | GATTTCAGTA | 0.98
131 | GATTTCCACG | 1.04
132 | GATTTCCGCC | 1.64
133 | GATTTCCGGA | 0.994
134 | GATTTCGAGG | 1
135 | GATTTGATGC | 1.05
136 | GATTTGCACG | 1.03
137 | GATTTGGATG | 0.984
138 | GATTTGGCGC | 0.972
139 | GATTTGGCGT | 1.14
140 | GATTTGTGAG | 1
141 | GATTTTAACC | 0.98
142 | GATTTTAACT | 0.954
143 | GATTTTACTG | 1.14
144 | GATTTTGCCC | 0.998
145 | GCAAAACATG | 3.83
146 | GCAAAACCGG | 1.93
147 | GCAAACCATG | 1.05
148 | GCAAACTAGT | 1.02
149 | GCAAAGTCGG | 1
150 | GCAAAGTTTT | 0.999

Row | Sequence | switch fluorescence ratio
151 | GCAACCTCGC | 1.15
152 | GCAACGAGGC | 1.06
153 | GCAACGATTT | 1.06
154 | GCAAGAGAAG | 0.952
155 | GCAAGTACTG | 1.43
156 | GCAAGTCGGA | 1.01
157 | GCAAGTGTCT | 1.07
158 | GCAATAACGT | 1.42
159 | GCAATAATAT | 1.1
160 | GCAATACCAG | 4.08
161 | GCAATAGCTT | 1.09
162 | GCAATAGGCT | 1.19
163 | GCAATTGCGT | 0.994
164 | GCAATTTCGG | 1.11
165 | GCACACGGTG | 1.08
166 | GCACAGAATG | 0.93
167 | GCACAGGTTT | 1.73
168 | GCACCTACT | 1.18
169 | GCACCTATGC | 1.03
170 | GCACCTGGTC | 1.09
171 | GCACCTTGGA | 1.03
172 | GCACGAATAA | 1.06
173 | GCACGCAAAG | 1.08
174 | GCACGCTTCT | 1.04
175 | GCACGGTGTG | 1

Row | Sequence | switch fluorescence ratio
176 | GCACGGTTGG | 1.01
177 | GCACGTTTAC | 1.28
178 | GCACTAACTG | 1.05
179 | GCACTATGCT | 1.04
180 | GCACTGAAAT | 1.01
181 | GCACTGTCGA | 1.1
182 | GCACTTCAAC | 1.09
183 | GCACTTTGGT | 1
184 | GCACTTTTGC | 1.06
185 | GCAGAAAGGG | 1.15
186 | GCAGAACTAA | 0.972
187 | GCAGACTTAA | 1.06
188 | GCAGATCGCT | 1.01
189 | GCAGATCT | 1.06
190 | GCAGATGCCA | 0.988
191 | GCAGCAACTA | 2.73
192 | GCAGCACCTG | 1.08
193 | GCAGCCCTTG | 0.972
194 | GCAGCGGGAG | 1.05
195 | GCAGCGGGGT | 0.981
196 | GCAGCGTGTC | 1.05
197 | GCAGCGTTGG | 0.983
198 | GCAGCTACCG | 1.07
199 | GCAGCTGGGA | 0.991
200 | GCAGCTGGGC | 1.14
